Data taken from the supplement of paper PMC3334620.
Whole data set: some 33,000 sequences, median “E-score (-0.5 to 0.5)” near -0.036, cut for the highest 2% near 0.37. This is one part of the list.

What follows are sequences tested against T1, Yer064c (UniProt P40041) (assay: PBM E-score (8-mer binding enrichment) (E-score (-0.5 to 0.5)); higher = stronger / more preferred TF binding; most listed sequences are background and not binding sites). Conditions: protein concentration: 200 nM; construct: GST-full length.
T1 sequence: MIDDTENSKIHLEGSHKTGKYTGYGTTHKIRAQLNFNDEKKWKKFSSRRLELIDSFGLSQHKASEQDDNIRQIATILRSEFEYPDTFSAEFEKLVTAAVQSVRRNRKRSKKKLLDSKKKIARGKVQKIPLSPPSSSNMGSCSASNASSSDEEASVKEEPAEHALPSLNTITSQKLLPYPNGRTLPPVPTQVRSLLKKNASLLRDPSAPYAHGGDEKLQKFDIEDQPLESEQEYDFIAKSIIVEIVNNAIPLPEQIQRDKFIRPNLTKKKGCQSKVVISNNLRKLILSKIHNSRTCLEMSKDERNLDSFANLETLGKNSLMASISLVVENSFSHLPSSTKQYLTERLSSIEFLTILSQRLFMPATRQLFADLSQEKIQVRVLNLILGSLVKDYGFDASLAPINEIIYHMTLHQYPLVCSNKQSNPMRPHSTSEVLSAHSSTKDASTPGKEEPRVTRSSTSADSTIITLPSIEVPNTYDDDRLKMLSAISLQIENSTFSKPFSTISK
Protocol: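 Universal 'all 10-mer' protein binding microarrays (Agilent AMADID 015681) probed with GST-tagged S. cerevisiae TFs (full-length or DBD) made by in vitro transcription/translation (PURExpress), about 100-200 nM. Bound TF was detected with fluorescent anti-GST. Each ungapped 8-mer (which stands for itself and its reverse complement) is scored by the PBM enrichment score (E-score), a modified Wilcoxon-Mann-Whitney statistic from -0.5 to +0.5, computed with the Universal PBM Analysis Suite. Scale: above 0.35 generally sequence-specific binding.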

Sequence	PBM E-score
GAACTCAC	0.25
ATAGGCGC	-0.219
ACTGACCC	0.0295
AGTAGTGG	-0.0372
CGGGTCTA	-0.135
AATTAGAA	-0.0394
AGGCGGGC	-0.382
ACATGTCA	-0.126
ACCCGTAC	-0.183
ATAAAGGC	-0.143
AGAACTCA	0.187
AGTGATCA	0.211
GGCGCACC	-0.25
CCAAACCA	-0.159
AGACGTAT	-0.0172
AACTGCAG	-0.145
GTTATTAA	0.0491
ATGTCAAA	0.00407
AAACACTT	-0.0548
GACACTTA	-0.0441
GCTGCAGA	-0.0903
TAGGATCA	0.0673
AACGCGAG	-0.00013
ACACGCAA	-0.0968
GCCCCGGA	-0.22

Sequence	PBM E-score
GCAACCCA	-0.0277
AGTTTGAT	0.163
CAAAGTGA	0.113
CAACCCCA	-0.0646
CAGACACC	-0.0709
CGAAGGGA	-0.119
ACGATACG	-0.207
CGGTCTCC	-0.249
GGCAACGA	-0.148
GAATCGGA	0.218
CTAGTCCA	0.109
CCCGACCG	-0.385
CTTTTAAA	0.0136
CCGCAGCA	-0.194
ATTACCTG	0.0843
AAGGCCGT	-0.258
ACCGCATG	0.0271
AGGCGCCG	-0.125
AGTGTTAC	0.0396
ACGCTTGA	0.012
GTAGTATA	0.084
AAATGGCA	-0.131
AAGGCTTA	0.0432
CATGCTCG	0.0136
ATGGGACG	-0.308

Sequence	PBM E-score
CAAAGGGC	-0.031
GAGGGACA	-0.267
ATGTTAAT	0.169
CCATTGAC	0.0546
AGATTAAA	0.309
CCAGCCGC	0.0158
ATTCTAAA	0.0754
AGAGTACG	0.0698
TCCGTTCA	-0.165
AGGCTCGC	-0.22
AACGTAAT	0.023
CGAAGGAA	-0.052
ATAAGGGA	-0.25
ATCGGAGC	-0.0582
CCCGATGC	-0.222
GCCCTGGA	-0.297
ACACAAAC	-0.0121
ACACCAGT	0.0254
AGAACCCA	-0.0189
GGCTATGA	0.113
TATTTGGA	-0.119
CATAGGAA	-0.154
GAGGACCA	-0.0209
CCACGAGA	-0.109
AGTCCTCC	0.298

Sequence	PBM E-score
CCCAGACA	-0.198
GCACTGAC	0.131
CGCGCAAC	-0.16
ATGGACCA	0.0226
GTGTGTTA	0.235
ATCCGTGC	0.0406
CGGCGGAA	-0.185
AATCTAAT	-0.0337
CTAGAGTA	0.138
AATTCGTC	-0.0764
CTCCCTCA	-0.12
AACCCTTC	-0.0797
ATCAATAG	0.0427
CCACGTTA	0.0265
ATAGGACA	-0.118
AAATGGGG	-0.226
ACTATCCA	0.12
CCTACGAC	0.21
CGCTGAGC	0.00332
TCGTAAAA	0.142
CCAACCAA	-0.265
ACACGGCC	-0.148
AGGCGGTG	-0.167
CAGCCCTC	-0.22
CCTCTGCA	-0.264

Sequence	PBM E-score
ACTAGCCG	-0.0796
TCATGCCA	0.105
CTATGGCA	-0.311
CTCTCCAA	-0.0296
CCGTTGAG	0.0485
ATGGCACA	-0.0931
TCTTTTAA	0.0984
ACCGTAAG	0.0406
CCGCGGGA	-0.0837
CCGGAGGA	-0.212
ATGGGCTA	0.0866
ACTAACTA	0.286
CAAAAGTA	0.0505
AAGTCTCG	0.0175
GGTTTTTA	0.0583
AGTTGGGC	-0.15
GACCGAAA	0.0708
ATAGCTAC	-0.0568
GCTCGAGA	-0.0023
ACGACGCT	-0.265
ACAATAAA	0.101
CCCGTTAA	-0.101
AACATTGG	-0.218
AGGTGTTA	-0.102
CAGGGTTA	-0.0541

Sequence	PBM E-score
ACTGTCAC	0.114
AGACATCA	0.278
CGACGTCC	-0.334
GGCCATGA	0.074
GTTGTACA	0.00913
GCTTATGA	0.254
GCCGTTGA	0.117
CGGGGTCC	-0.35
GCTCGATA	-0.0601
AGATCTCA	0.0373
GAGAACGA	-0.0613
AAGGGTCG	-0.0814
GGCTGTAA	-0.0447
AGGCATTA	-0.229
CATCGACG	0.035
CGCATCCA	-0.0959
GTAGTGAC	0.132
TCTCTGCA	0.138
AAGTTGTA	-0.0146
CGGGGATA	-0.194
CCACATCG	-0.0203
ATAATTTG	0.0214
ACGCCACC	-0.145
CGATTATC	0.13
AAACAACA	0.101

Sequence	PBM E-score
TCTGAAGA	-0.00804
CTGTCAGA	-0.111
CCTCGACA	-0.112
CTACAGTA	0.0252
TAAGATGA	0.193
ATCCGTAG	-0.0702
CTGCAATC	0.0315
GACAATAC	0.00248
AGTCCGAC	0.31
AGAACGGA	-0.109
ATGGAGAA	-0.144
GGAAATAC	-0.159
AGCGTTAC	0.0465
CCCCAGAC	-0.166
ACGCAACG	-0.0214
ATATAGAC	0.146
CACCGTAA	0.0186
CACCTCGA	0.0618
ACTCAAAA	0.317
AGTCGTTC	0.359
AGATGGAT	-0.276
ATTAGAGG	-0.0816
CCTGCGCC	-0.291
CCCAGGTC	-0.162
ATTCTTAC	0.0372

Sequence	PBM E-score
AAAACTCG	0.0941
TCACTGAA	0.106
CATCTCTC	0.00767
AAAACTGA	0.00201
AGTCTGAC	0.303
GATGGCAC	-0.428
CGCGACCA	-0.126
GGTGGGTA	0.0712
ATCCTTCG	0.0319
CACGATTA	0.193
CGTAGCGA	-0.229
ACTCGAAT	0.199
CAGCTTCA	0.0349
TCAGCGAA	0.186
CACACGAG	0.0738
ATTTTGTA	0.00667
AGATTATA	-0.00226
AAACACGA	0.0587
ATTCTCCG	0.0303
CCGCAAGG	-0.283
ATTGCGGA	0.124
GAGTCCAC	0.325
CTAACGCA	-0.00525
AAGACGCT	-0.238
GCGAGGCA	-0.0616

Sequence	PBM E-score
TATGAACA	0.0759
AAATGGAA	-0.0228
ATTTAATA	0.117
AAGAAGCA	-0.00711
GCGCTACC	-0.175
TTATCAAA	0.233
CTAATCGC	0.128
CGAGAAAA	-0.0321
CTCAGACC	0.121
AGTAATAT	0.0983
CAGCCACC	0.0165
GTGAGGTA	0.0206
CAGGGCTC	-0.184
CACAAAAG	0.0565
GAATATAA	-0.00715
CTCGGGTC	-0.195
AGGAGGCC	-0.278
CGGTAATA	0.0979
GATACTAC	-0.0689
